According to PubChem BioAssay AID1460 (National Center for Advancing Translational Sciences (NCATS), 2008):
Screen size: about 270,000 compounds; about 5,800 (2.1%) were called active. Inconclusive results, whose numbers are uncertain, are shown with a selection of clear calls. Calls come from the whole dose curve; as a rule, active = well fitted inhibition curve with a large enough effect; inconclusive = small, poorly fitted or top-dose-only effect; inactive = flat fitted curve, though single readings scatter. A potency beside an inconclusive call is a rough fit, not a confirmed value.

These compounds were tested against Microtubule-associated protein tau (Homo sapiens) (UniProt P10636) (assay: qHTS for Inhibitors of Tau Fibril Formation, Thioflavin T Binding). Conditions: recombinant tau K18 P301L (four-repeat tau fragment), heparin-induced fibrillization, ThT fluorescence; series mostly up to 57.4 µM; activity, negative = inhibition: at the top concentration.
Sequence of UniProt P10636 (P10636 whole entry, looked up, the tested form may be a part): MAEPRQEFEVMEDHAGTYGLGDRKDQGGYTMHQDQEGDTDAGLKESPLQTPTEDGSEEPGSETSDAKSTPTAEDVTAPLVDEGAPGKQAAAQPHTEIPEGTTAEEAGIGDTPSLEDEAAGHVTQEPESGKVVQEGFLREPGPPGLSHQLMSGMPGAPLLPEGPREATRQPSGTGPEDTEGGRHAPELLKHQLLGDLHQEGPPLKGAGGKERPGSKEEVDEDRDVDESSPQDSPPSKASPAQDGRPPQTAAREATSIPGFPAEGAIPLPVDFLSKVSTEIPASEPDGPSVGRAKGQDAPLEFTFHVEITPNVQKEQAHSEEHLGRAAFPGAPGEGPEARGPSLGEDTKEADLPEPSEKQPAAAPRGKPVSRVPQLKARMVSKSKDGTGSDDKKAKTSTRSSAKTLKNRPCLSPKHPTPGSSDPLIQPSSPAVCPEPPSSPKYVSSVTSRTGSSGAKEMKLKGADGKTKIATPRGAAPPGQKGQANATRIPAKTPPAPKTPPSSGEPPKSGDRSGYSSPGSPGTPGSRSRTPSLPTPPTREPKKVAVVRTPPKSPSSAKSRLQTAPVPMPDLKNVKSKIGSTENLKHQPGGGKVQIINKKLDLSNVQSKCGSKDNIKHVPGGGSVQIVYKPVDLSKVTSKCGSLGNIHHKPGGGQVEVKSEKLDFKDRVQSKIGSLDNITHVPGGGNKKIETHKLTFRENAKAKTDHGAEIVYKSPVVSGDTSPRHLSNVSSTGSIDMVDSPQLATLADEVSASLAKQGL
How it was run: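 Heparin-induced (20 uM) aggregation of recombinant human K18 P301L tau, 15 uM unlabeled with 0.24 uM labeled, pH 7 acetate buffer, 6 hr at 37 C with compound. Fibrils quantified by 30 uM ThT fluorescence after 1 hr ambient incubation.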
% is set by controls: 0 for no effect and ±100 for the full control effect; potency is the fitted concentration of half-maximal effect; tags give direction and shape of the fitted curve.
Note: nearly all actives have a fitted effect of over 55% in size.

Compound | activity, negative = inhibition | Potency
CCN(CCCNC(=O)c1nn(-c2ccc(OC)c(Cl)c2)c(=O)c2c1c1ccccc1n2C)c1ccccc1 | inactive: -4.09% | –
CC(=O)c1ccc(N2CCN(C(=S)Nc3ccc(Cl)c(Cl)c3)CC2)cc1 | – | inconclusive: 7.94 µM [inhibitor, partial curve]
Cc1cc(N2CCOCC2)nc2ccc(NC(=O)CCC(=O)N3CCC(C)CC3)cc12 | inactive: -8.06% | –
Cc1cc(C)nc(/N=c2/ssnc2Cl)c1 | – | active: 3.98 µM
CCSc1nnc(NC(=O)C2Cc3ccccc3CN2S(=O)(=O)CC)s1 (centres undefined) | – | inconclusive: 17.8 µM [inhibitor, single point]
CC1Nc2nc(NC(=O)C(C)(C)C)[nH]c(=O)c2N(C)C1C (centres undefined) | inactive: -5.53% | –
Cc1ccc2nc(-c3ccc(NC(=O)CCS(=O)(=O)c4ccccc4)cc3)sc2c1 | – | inconclusive: 10 µM [activator, partial curve]
CC/C(=N\NC(=S)Nc1cc(C)ccc1C)c1ccc(OC(F)F)cc1 | – | inconclusive: 35.5 µM [inhibitor, partial curve]
CCOC(=O)c1c(NC(=O)CSc2cn(CC)c3ccccc23)sc2c1CCC2 | – | inconclusive: 17.8 µM [inhibitor, partial curve]
COc1ccc(-c2csc(-c3c(N)c(C(=O)c4ccccc4)n4ccccc34)n2)cc1OC | – | inconclusive: 7.08 µM [inhibitor, partial curve]
COc1cc2c(cc1OC)CN(c1nc(CN3CCOCC3)nc3sc4c(c13)CCCC4)CC2 | – | inconclusive: 35.5 µM [inhibitor, single point]
C=CCn1cnc2sc(C(=O)Nc3ccccc3OC)c(C)c2c1=O | – | inconclusive: 28.2 µM [inhibitor, single point]
Cn1nc(C(=O)NCCc2ccc(Cl)cc2)c2c1-c1ccccc1SC2 | inactive: 3.1% | –
CCCSc1nc2sc3c(c2c(=O)n1-c1ccc(C)c(Cl)c1)CCN(C(C)=O)C3 | – | inconclusive: 14.1 µM [inhibitor, partial curve]
O=[N+]([O-])c1ccc(O)c(/C=N/NC2=NS(=O)(=O)c3ccccc32)c1 | – | inconclusive: 14.1 µM [inhibitor, partial curve]
O=C(O)c1ccc2c(c1)C(=O)N(CCC1=CCCCC1)C2=O | inactive: -5.26% | –
CC(=O)Nc1ccccc1-c1nc2ccccc2nc1OCC(=O)c1ccc2ccccc2c1 | – | inconclusive: 6.31 µM [inhibitor, partial curve]
CNc1nc2c(c(=O)n(C)c(=O)n2C)n1CC(O)COc1ccc(OC)cc1 (centres undefined) | inactive: -2.07% | –
COc1ccc(-c2cn3cccc(C)c3n2)cc1Br | – | inconclusive: 1.78 µM [inhibitor, partial curve]
